In all, about 33,000 sequences were measured (“E-score (-0.5 to 0.5)”: median about -0.056, highest 2% from about 0.38 on). The list shows a part of the results.
biological target: Stb4 (UniProt P50104); assay: PBM E-score (8-mer binding enrichment) (E-score (-0.5 to 0.5)); higher = stronger / more preferred TF binding; most listed sequences are background and not binding sites; conditions: protein concentration: 200 nM; construct: GST-DNA-binding domain
Procedure, shortened: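 Yeast transcription factors, full-length or as DNA-binding domains, were expressed with a GST tag using PURExpress in vitro transcription/translation. At about 100-200 nM they were applied to universal all-10-mer Agilent arrays, double-stranded by primer extension on fresh or once-stripped slides. Fluorescent anti-GST detected bound protein, and masliner normalised the scans. E-scores for ungapped eight-base words, pooled with reverse complements, came from the Universal PBM Analysis Suite.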

Row | Sequence | PBM E-score
1 | ACCATCTC | 0.059
2 | AACCTTGG | -0.142
3 | CGCATTAA | -0.0129
4 | CCTCCTGC | -0.248
5 | CTGGACAA | -0.246
6 | CAACCCAG | -0.117
7 | ACCACCGA | 0.18
8 | CGACAAAA | 0.2
9 | CCCACCGC | 0.0372
10 | GACCTCAA | -0.211
11 | CAGCGAAG | -0.147
12 | ATCTCCTG | -0.0504
13 | GCGGCGCC | 0.0629
14 | GCACGCCA | -0.0537
15 | ATTGTTCG | 0.197
16 | CAACCGAG | 0.361
17 | GCTCGAAA | -0.0196
18 | TCTCTAAA | -0.0651
19 | ATTCAGGA | 0.0181
20 | ATAGAGGC | -0.256
21 | CCATATGA | -0.213
22 | GCATGGTA | 0.0539

Row | Sequence | PBM E-score
23 | AAAGAACT | -0.0941
24 | CTTCACGA | -0.196
25 | AGTATCGC | -0.105
26 | GTATCGAA | -0.0419
27 | CTTTTCGA | -0.212
28 | TATTCGCA | -0.147
29 | CGAACAAA | 0.265
30 | AAGACGAG | -0.149
31 | ATGTCACG | -0.0456
32 | CGATGATC | -0.0104
33 | AGGGAGGC | -0.158
34 | ACTCGCGG | 0.0583
35 | GAGGCAAA | -0.00172
36 | GACGGTGC | -0.0351
37 | AGCGTTGA | -0.308
38 | GTGGCCAC | -0.0811
39 | TGGACACA | -0.0935
40 | GCAGGGTA | -0.0729
41 | ATGAGGTG | -0.194
42 | AATCCCTG | -0.161
43 | ATCGCTCG | 0.027
44 | ACTACACT | -0.14

Row | Sequence | PBM E-score
45 | ACGATAAC | -0.134
46 | ACTGGAAC | 0.013
47 | TTTATAAA | 0.0491
48 | AAGCCAGT | -0.178
49 | AGTCGATG | -0.131
50 | AAGCCCCG | 0.159
51 | AATTTGAC | -0.0566
52 | GACTCAGA | -0.124
53 | CAGACCAC | -0.224
54 | TACCGAGA | 0.431
55 | TTGAGCAA | -0.167
56 | GCAGAGAC | -0.207
57 | GAGTACGC | -0.153
58 | ACTGCATC | -0.0835
59 | CGGTTAAA | 0.313
60 | GAGGTTGA | -0.0469
61 | CCTAGCGA | -0.284
62 | ATTATAAA | 0.0595
63 | AGAGACGA | -0.061
64 | ACCGTTCC | 0.376
65 | CCGTGAGC | 0.111
66 | CACCAGTA | -0.306

Row | Sequence | PBM E-score
67 | GCAGTGGC | -0.0908
68 | ATAGGGGC | 0.00011
69 | GAACTGGC | 0.1
70 | ACTACGCG | 0.0956
71 | CCGAATCG | 0.405
72 | AGACCACA | -0.155
73 | AGAAGAGC | -0.179
74 | AAACGTCG | 0.104
75 | AATTATGT | -0.165
76 | AAGTGCCA | -0.128
77 | GGATGCAA | 0.141
78 | CGAAAAAC | 0.163
79 | GTTGTGGA | -0.0843
80 | CCCGTCCC | 0.114
81 | GTAACTGA | -0.299
82 | CGAGCATA | -0.0452
83 | CAAGGCTC | -0.227
84 | TCAACCGA | 0.291
85 | CAGTATGG | -0.0406
86 | AAACTGGA | -0.145
